Screen size: about 340,000 compounds; about 6,900 (2%) were called active. Rule as the data show it: active = inhibition above about 30%; inactive = below that, where a call was filed. This is a selection; strong and weak results do not stand in their true shares. Where no call is shown, the source filed none.
Each molecule was assayed against D(2) dopamine receptor (Homo sapiens) (UniProt P14416) (assay: HTS Assay for Allosteric Antagonists of the Human D2 Dopamine Receptor: Primary Screen for Antagonists). Settings: HEK293 TREx D2 cells, calcium flux, dopamine EC80; at 10 µM; stronger effect = higher value.
UniProt P14416, sequence (P14416 whole entry, looked up): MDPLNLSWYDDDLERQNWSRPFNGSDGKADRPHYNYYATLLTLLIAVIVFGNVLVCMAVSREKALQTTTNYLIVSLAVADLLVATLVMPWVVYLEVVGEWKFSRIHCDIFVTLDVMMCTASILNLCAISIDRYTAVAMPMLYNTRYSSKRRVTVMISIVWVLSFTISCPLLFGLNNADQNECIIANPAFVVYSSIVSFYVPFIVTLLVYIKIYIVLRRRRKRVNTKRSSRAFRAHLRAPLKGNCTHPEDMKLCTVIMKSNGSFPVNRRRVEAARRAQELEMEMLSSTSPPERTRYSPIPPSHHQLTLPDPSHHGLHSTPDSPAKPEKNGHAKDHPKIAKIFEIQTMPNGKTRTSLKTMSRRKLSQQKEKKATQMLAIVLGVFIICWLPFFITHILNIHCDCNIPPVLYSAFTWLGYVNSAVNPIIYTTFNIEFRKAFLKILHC
Summary of the method: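 In this primary screen, negative modulation is detected by tracking calcium flux after an EC80 dopamine challenge in inducible HEK293 T-REx D2 cells preexposed to test compound for 180 s.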
With CCOc1ccc(NC(=O)C(=O)NCCc2csc(-c3ccc(C(F)(F)F)cc3)n2)cc1 the inhibition was 8.38%.
With Cc1cc(C)cc(NS(=O)(=O)c2ccc3[nH]cc(C(=O)NCCc4ccccc4)c(=O)c3c2)c1 the inhibition was 1.34%.
Cc1cc(NC(=O)Nc2nnc(N3CCCCCC3)s2)ccc1Br was tested, and the inhibition was -3.86%.
Cc1ccc(CNC(=O)c2ccc(Nc3nc4ccccc4n4nnnc34)cc2)cc1 gave an inhibition of 15.5%.
Cc1ccc(-c2nn(-c3ccccc3)c3c2cnc2ccccc23)cc1C gave an inhibition of 17.9%.
With OC1(c2ccc(Cl)cc2)CCN(Cc2cn[nH]c2-c2ccc(F)cc2)CC1 the inhibition was active: 56.4%.
In the case of O=C(COc1ccc(Cl)cc1)Nc1nnc(S(=O)(=O)N2CCCCCC2)s1, the inhibition is reported as 12.4%.
CCOc1cccc(CC(=O)N2CCc3c([nH]c4ccc(OC)cc34)C2c2ccc(F)cc2)c1OCC (stereo not drawn) gave an inhibition of 9.74%.
CC(=O)N1CCCc2cc(S(=O)(=O)N3CCC(C(=O)Nc4ccc(C)cc4Cl)CC3)ccc21 gave an inhibition of 1.99%.
In the case of CCCCOc1ccc(C2C(C(=O)Nc3ccccc3OC)=C(C)Nc3nnnn32)cc1OC (stereo not drawn), the inhibition is reported as 10.2%.
Cc1ccn2c(Nc3ccc4c(c3)OCCO4)c(-c3ccccc3O)nc2c1 gave an inhibition of -5.01%.
Work on Cc1ccc(S(=O)(=O)n2nc(C)c(S(=O)(=O)N3CCCCCC3)c2C)cc1C yielded an inhibition of 2.58%.
COc1ccccc1N1CCN(C(CNC(=O)C(=O)NCc2cccnc2)c2cccnc2)CC1 (stereo not drawn) was tested, and the inhibition was -27.7%.
In the case of CCN(CC)CCCNC(=O)CCC(=O)NNc1nc2ccccc2c2nc(C)nn12, the inhibition is reported as 4.67%.
CCOC(=O)c1c(NC(=O)c2cc(-c3ccc(OC)c(OC)c3)on2)sc(C)c1C gave an inhibition of 8.52%.
Molecule Cc1ccccc1CNC(=O)CSc1nnc(C)c2c(C)n(-c3ccccc3)nc12 has an inhibition of 18%.
CCOc1ccccc1NC(=O)c1ccc(F)c(S(=O)(=O)N2CCN(c3ccc(F)cc3)CC2)c1 was tested, and the inhibition was 11.4%.
COc1ccc(Nc2nc3ccc(Cl)cc3nc2-n2nc(C)cc2C)cc1 was tested, and the inhibition was -4.6%.
For CCOc1ccc(C(=O)NCC(c2cccs2)S(=O)(=O)c2ccccc2)cc1 (stereo not drawn), the inhibition was -6.27%.
Cc1cccc(C(=O)N2CCc3cc(CNC(=O)CSc4ccccc4)ccc32)c1 showed an inhibition of -1.1%.
CCOc1ccc(NC(=O)c2cc(C)nc3c2c(C)nn3-c2ccc(C)cc2)cc1 was tested, and the inhibition was 15.6%.
CCOc1ccc(C(=O)NCCSc2c(C)[nH]c3ccccc23)cc1OCC gave an inhibition of 7.92%.
In the case of COc1cccc(C(=O)Oc2c(Sc3ccc(C)cc3)c(C)nn2C(C)(C)C)c1OC, the inhibition is reported as 0.583%.
In the case of CCOC(=O)C1=CN(Cc2ccc(OC)cc2)C=C(C(=O)OCC)C1c1cccs1, the inhibition is reported as active: 42.1%.
With COc1ccc(NC(=O)c2cc(S(=O)(=O)N3CCCC3)ccc2OC)cc1 the inhibition was 1.72%.
Molecule COC(=O)c1ccccc1NC(=O)CN1C(=O)COc2ccc(Cl)cc21 has an inhibition of 6.19%.
Molecule CC(C)Cc1nn2c(=O)cc(COC(=O)c3ccc(NC(=O)C4CCCCC4)cc3)nc2s1 has an inhibition of 6.23%.
In the case of COc1ccccc1N1CCN(C2CCCN(Cc3cc(F)cc(F)c3)C2)CC1 (stereo not drawn), the inhibition is reported as active: 40.9%.
With CCN(CCCNC(=O)c1nn(-c2ccc(C)cc2)c(=O)c2c1c1ccccc1n2C)c1cccc(C)c1 the inhibition was 10.7%.
With CCc1ccc2c(CN3CCc4cc(OC)c(OC)cc4C3)cc(=O)oc2c1 the inhibition was active: 31.6%.
COc1cccc(CNC(=O)CN2C(=O)COc3ccc(S(=O)(=O)N4CCOCC4)cc32)c1 showed an inhibition of 9.69%.
In the case of Cc1cccc(NC(=O)CN2C(=O)C(c3ccc(F)cc3)=NC23CCCCCC3)c1, the inhibition is reported as 12.5%.
With Cc1ccc2c(c1)-c1c(c(C(=O)N3CCN(c4cc(C)ccc4C)CC3)nn1C)CS2 the inhibition was -1.7%.
Molecule Cc1ccc(CNC(=O)c2ccc(N3CCCC3)c(NC(=O)Nc3ccc(F)c(Cl)c3)c2)cc1 has an inhibition of 7.47%.
Work on CC(=O)c1c(C)oc2c1cc(NS(=O)(=O)c1ccc(C(C)(C)C)cc1)c1ccccc12 yielded an inhibition of 0.415%.
Molecule COc1ccc(NC(=O)Cn2c(=O)c3ccccc3n3nncc23)c(OC)c1 has an inhibition of -22.8%.
In the case of O=C(CSc1ncnc2scc(-c3ccccc3)c12)N1CCN(Cc2ccc3c(c2)OCO3)CC1, the inhibition is reported as active: 69.7%.
Work on Cc1ccc(CNC(=O)C(C)n2nc(C)c3sc4ccccc4c3c2=O)cc1 (stereo not drawn) yielded an inhibition of 11.7%.
For Cc1cc(C)c(NC(=O)Cn2c(=O)n(Cc3ccc(C(=O)NCc4ccc5c(c4)OCO5)cc3)c(=O)c3ccccc32)c(C)c1, the inhibition was -5.97%.
Molecule Cc1ccc2nc(-c3ccc(Cl)s3)c(Nc3ccc4c(c3)OCCO4)n2c1 has an inhibition of 3.38%.
COc1cccc(-n2c(SCc3ccc(F)cc3)nc3c([nH]c4ccccc43)c2=O)c1 was tested, and the inhibition was 9.06%.
COC(=O)c1ccc(NC(=O)CN(C)S(=O)(=O)c2ccc(Br)s2)cc1 showed an inhibition of -5.91%.
Cc1nn2c(C)c(C(=O)NCc3ccc(OC(C)C)cc3)cnc2c1-c1ccc(F)cc1 showed an inhibition of -9.68%.
Work on Cc1ccc(/C=C/C(=O)Nc2nc(-c3cccs3)ns2)cc1 yielded an inhibition of -4.34%.
Molecule COc1ccc(-n2cc(C(=O)N(CCN(C)C)Cc3ccccc3)c3ccccc3c2=O)cc1 has an inhibition of -14%.
Work on COc1cc(C(=O)N(Cc2ccc(F)cc2)Cc2ccco2)cc(OC)c1OC yielded an inhibition of -16.8%.
With Cc1ccc(N(CC(=O)Nc2cccc(Cl)c2C)S(=O)(=O)c2c(C)noc2C)cc1 the inhibition was -15.7%.
CCn1c(C)c(C)c2cc(C(=O)NCCCN3CCCCC3C)ccc21 (stereo not drawn) gave an inhibition of -10.4%.
Molecule COc1ccc(CNC(=O)CS(=O)Cc2nc(-c3ccc(OC)c(OC)c3)oc2C)cc1 (stereo not drawn) has an inhibition of -9.56%.
COc1ccc(Cn2c(=O)[nH]c3cc(C(=O)NCCC(C)C)ccc3c2=O)cc1 showed an inhibition of 1.4%.
Molecule Cc1cc(C)c(NC(=O)CSc2nc3ccccc3c3nc(CCn4cncc4C)nn23)c(C)c1 has an inhibition of 5.42%.
For CN1CCN(c2ccc([N+](=O)[O-])c(Sc3nc4ccccc4[nH]3)c2)CC1, the inhibition was active: 88.9%.
With O=S(=O)(c1ccc(Cl)cc1)c1nc(-c2ccccc2Br)oc1NCc1ccccc1 the inhibition was -18.7%.
COc1ccc(CCNC(=O)CSc2nc3nc(C)c(Cc4ccc(C)cc4)c(C)n3n2)cc1OC gave an inhibition of -13.6%.
In the case of Cc1ccc(C)c(OCCn2c(C3CC(=O)N(Cc4ccc(F)cc4)C3)nc3ccccc32)c1 (stereo not drawn), the inhibition is reported as 7.35%.
In the case of CCN(CC)CCCNc1cc(-c2ccccc2)nc(C)n1, the inhibition is reported as -6.04%.
Cc1ccccc1CNC(=O)c1nn(-c2ccccc2F)nc1CO was tested, and the inhibition was 8.1%.
For O=c1c2sccc2n(Cc2cc(=O)n3ccccc3n2)c(=O)n1-c1cc(F)ccc1F, the inhibition was -4%.
In the case of COc1cccc2c1Oc1ncccc1N(C(=O)CCC(=O)NCCC(C)C)C2, the inhibition is reported as -9.43%.
Work on COc1ccc(C(=O)Nc2ccc(-c3nnc4n3CCCCC4)cc2)cc1 yielded an inhibition of -18.7%.
CCn1nc(-c2ccccc2)c(-c2ccccc2)c(C(=O)Nc2ccc(S(N)(=O)=O)cc2)c1=O showed an inhibition of 6.04%.
COc1cc(OC)cc(C(=O)Nc2cc(-c3nc4ccccc4[nH]3)ccc2C)c1 showed an inhibition of -5.83%.
In the case of COC(=O)c1c(SC)nc2ccccc2c1OCc1ccc(Br)cc1, the inhibition is reported as -1.49%.
Work on CCOC(=O)C1CCCN(c2nc3c(S(=O)(=O)c4ccc(Br)cc4)nnn3c3ccsc23)C1 (stereo not drawn) yielded an inhibition of -4.5%.
With Cc1cccc(-c2noc(-c3ccc(NCc4ccco4)c([N+](=O)[O-])c3)n2)c1 the inhibition was -12%.
For O=C(c1ccco1)N1CCN(c2nc3c(F)cc(F)cc3s2)CC1, the inhibition was -2.77%.
CCC(=O)N1c2ccccc2CC1C(=O)NCc1cccc(OC)c1OC (stereo not drawn) was tested, and the inhibition was -10.8%.
For COc1cccc(-c2ccc(-c3noc(-c4ccccc4Br)n3)c(OC)n2)c1, the inhibition was 2.37%.
With Cc1ccc2nc(COc3ccccc3NC(=O)c3ccccc3C)cc(=O)n2c1 the inhibition was 8.26%.
With COc1ccc(-c2nnc(SCC(=O)Nc3cc(OC)ccc3OC)nc2-c2ccc(OC)cc2)cc1 the inhibition was 22.3%.
In the case of O=S(=O)(c1ccc(Cl)cc1)c1nc(-c2cccc(Br)c2)oc1NCc1ccccc1, the inhibition is reported as 3.81%.
Molecule COc1ccc(CCn2c(=O)c3cccnc3n(CC(=O)Nc3c(C)cccc3C)c2=O)cc1OC has an inhibition of 1.96%.
CCc1cccc(C)c1NC(=O)Cn1c(=O)n(-c2ccc(C)cc2)c(=O)c2c1cnn2C gave an inhibition of 2.23%.
Molecule COc1ccc(OC)c(NC(=O)c2ccc3c(SCC(=O)O)c4c(nc3c2)CCCC4)c1 has an inhibition of -3.59%.
With N#Cc1ccccc1NC(=O)C(=O)NCCc1csc(-c2ccc(C(F)(F)F)cc2)n1 the inhibition was 17.9%.
For Cc1ccc(Nc2nnc(SCC(=O)NC3CCS(=O)(=O)C3)s2)c(C)c1 (stereo not drawn), the inhibition was active: 38.8%.
O=C1CSC2(C(=O)N(Cc3ccccc3)c3ccccc32)N1c1cccc(F)c1 (stereo not drawn) showed an inhibition of -3.17%.
For COc1cccc(NC(=O)CN(C)C(=O)CC(NC(=O)c2ccccc2Cl)c2ccccc2)c1 (stereo not drawn), the inhibition was active: 31.6%.
With CCc1ccc(NC(=O)COC(=O)CCCC2=NS(=O)(=O)c3ccccc3N2)cc1 the inhibition was -11.9%.
CCOc1ccc(CCNC(=O)C2CCN(Cc3nc(-c4ccc(OC)c(OC)c4)oc3C)CC2)cc1OCC was tested, and the inhibition was 20.2%.
COc1ccc(-n2c(/C=C/c3cccc(C(F)(F)F)c3)nc3ccccc3c2=O)cc1Cl was tested, and the inhibition was 5.69%.
CCOc1ccccc1NC(=O)C1CCN(S(=O)(=O)c2ccc3[nH]c(=O)ccc3c2)CC1 showed an inhibition of -4.47%.
For COc1cc(-c2nc(-c3ccc4c(c3)[nH]c(=O)n4C)no2)cc(OC)c1OC, the inhibition was 24.9%.
For CC(C(=O)Nc1cccc(S(=O)(=O)N2CCOCC2)c1)N1CCN(C/C=C/c2ccccc2)CC1 (stereo not drawn), the inhibition was active: 79.9%.
In the case of Cc1ccn2c(=O)cc(COc3ccc(NC(=O)COc4ccccc4)cc3)nc2c1, the inhibition is reported as 7.12%.
Cc1ccc(S(=O)(=O)N2CCN(Cc3cc(Br)ccc3O)CC2)cc1 showed an inhibition of -0.256%.
For CCC(=O)N1CCc2cc(Br)cc(S(=O)(=O)N3CCCC(C(=O)NCc4ccc(F)cc4)C3)c21 (stereo not drawn), the inhibition was 10.1%.
For Cn1cc(S(=O)(=O)N2CCCCCC2)cc1C(=O)N1CCN(c2cccc(C(F)(F)F)c2)CC1, the inhibition was -23.6%.
With COc1cc(CN2CCN(c3ncccn3)CC2)cc(OC)c1 the inhibition was active: 86.7%.
For Cc1cccc(C(=O)Nc2nc3nc(-c4ccccc4)cc(=O)n3[nH]2)c1, the inhibition was -2.73%.
With CCSc1ncc(Cl)c(C(=O)Nc2ccc(S(=O)(=O)Nc3ncccn3)cc2)n1 the inhibition was 4.42%.
COc1cccc(CNC(=O)CCCn2ncn3c(cc4occc43)c2=O)c1OC gave an inhibition of -10.1%.
For Cn1c(=O)n(C)c2cc(N3CCOCC3)c(NC(=O)c3ccc(Cl)cc3)cc21, the inhibition was -3.52%.
Also: 0% is about no effect.
